# Reference: PubChem BioAssay AID1794844 (National Center for Advancing Translational Sciences (NCATS), 2023)
# Hit rate of the full screen: of about 2,800 compounds, fewer than 10 were called active. Inconclusive means that the source gave no clear call. Such entries were picked first, then a sample of the others. The call rests on the fitted dose curve; in most records, active means well fitted inhibition curve with a large enough effect; inconclusive means small, poorly fitted or top-dose-only effect; inactive means no such curve, though single readings can be large or run the other way. Potencies of inconclusive entries are doubtful fits and often do not repeat.
# Biological target: Metallo-beta-lactamase type 2 (Klebsiella pneumoniae) (UniProt C7C422)
# Chain of UniProt C7C422 (C7C422 whole entry, looked up): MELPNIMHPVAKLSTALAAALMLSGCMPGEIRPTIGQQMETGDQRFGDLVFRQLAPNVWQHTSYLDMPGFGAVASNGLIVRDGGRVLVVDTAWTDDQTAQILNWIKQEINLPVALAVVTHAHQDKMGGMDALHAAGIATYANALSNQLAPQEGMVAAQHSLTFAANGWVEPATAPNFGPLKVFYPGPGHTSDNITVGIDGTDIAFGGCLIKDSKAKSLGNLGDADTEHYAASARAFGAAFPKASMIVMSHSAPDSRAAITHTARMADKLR
# Experiment: qHTS to identify inhibitors of the New Delhi Metallo-beta-lactamase (NDM): Nitrocefin screen against the machine-based learning selections.
# Conditions: NDM-1 enzyme, nitrocefin hydrolysis, absorbance 485 nm; series mostly up to 38.4 µM
# How it was run: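 NDM-1 (2 nM final) in 50 mM HEPES pH 7.0, 1 uM Zn2SO4, 0.01% Tween20 was preincubated with compounds for >30 min. Nitrocefin (16.7 uM final) was read at 485 nm after 15 min, and meropenem (50 uM final) at 300 nm after 30 min.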
# Potency means the concentration at half of the fitted maximal effect; tags describe the fitted curve by direction and shape.
row,SMILES,Potency
1,COCc1cn(C[C@H]2C[C@@H](NCc3nccs3)[C@H](O)[C@@H]2O)nn1,"inconclusive: 8.42 µM [inhibitor, full curve]"
2,O=C(C1CC1)N1CCC2(CC1)CCN(CCc1ccccc1)c1ccccc1O2,inactive
3,CC(O)c1cc2n(n1)CCN(C1CCN(C(=O)c3cnccn3)CC1)C2 (stereo not drawn),inactive
4,C[C@@H](NC(=O)c1ccccn1)c1onc(-c2ccc(Cl)cc2)c1C(=O)O,"inconclusive: 0.969 µM [inhibitor, full curve]"
5,CN(Cc1cccnc1)c1ccc2ncc(Nc3cccc(N[S+](C)(=O)[O-])c3)n2n1,"inconclusive: 15.4 µM [inhibitor, partial curve]"
6,O=C(O)[C@H]1C[C@@H](C(=O)NCc2ccccn2)CN(CC2CC2)C1,"inconclusive: 9.45 µM [inhibitor, full curve, poor fit]"
7,CNC(=O)[C@H]1C[C@H](Oc2cccnc2)CN1S(=O)(=O)c1ccc(OC)cc1,inactive
8,c1ccc(-c2nc3c(c(NCC4OCCc5ccccc54)n2)CCNCC3)nc1 (stereo not drawn),"inconclusive: 29.9 µM [inhibitor, single point]"
9,Cc1nn2c(c1-c1ccccc1C(N)=O)N(CCCc1ccccc1)CCC2,"inconclusive: 27.3 µM [inhibitor, single point]"
10,Cc1ccc(C2(O)CCN(C(=O)c3ccccc3-c3nn[nH]n3)CC2)nc1,"inconclusive: 16.8 µM [inhibitor, partial curve, poor fit]"
11,Cc1cc2ncc(C(=O)N3CCCn4nc(CCC(=O)O)cc4C3)c(=O)n2[nH]1,"inconclusive: 15 µM [inhibitor, partial curve]"
12,O=C(NC1CC(=O)N(CCc2cccc(Cl)c2)C1)c1ccsc1 (stereo not drawn),inactive
13,Cc1ccccc1NC(=O)Nc1ccnn1C1CCN(C(=O)[C@@H](N)CO)CC1,"inconclusive: 29.9 µM [inhibitor, single point]"
14,COc1ccccc1CN1Cc2[nH]cnc2C[C@H]1c1nc(-c2cccc(C)c2)no1,"inconclusive: 43.3 µM [inhibitor, single point]"
15,CNC(=O)[C@@H](c1ccccc1F)N1CCC[C@H]1C(=O)NCC(C)C,"inconclusive: 30.6 µM [inhibitor, partial curve, poor fit]"
16,COc1ccc(C(=O)N2CC[C@@H](CC(=O)O)[C@@H](CCN3CCC[C@H]3C(N)=O)C2)cc1,"inconclusive: 21.7 µM [inhibitor, partial curve]"
17,C[S+](=O)([O-])Nc1cccc(-c2cc(-c3cccnc3)c3cncn3c2)c1,inactive
18,c1cncc(CN2CCn3c(nnc3C3CCCNC3)C2)c1 (stereo not drawn),"inconclusive: 16.6 µM [inhibitor, partial curve]"
